{
  "source": "PubChem BioAssay (Tox21)",
  "note": "Values joined by “and” are separate entries in the source; they are usually repeats but may differ in a detail not shown here. Equal entries are not always repeated. The shares of active, inactive and inconclusive entries below differ from those in the screen. Where the call is inconclusive, the potency comes from a doubtful curve fit. Where a structure was tested more than once in an assay, its records may differ in their call. Active and inactive are the calls of the source. The call rests on the fitted dose curve; in most records, active means well fitted inhibition curve with a large enough effect in the repeat runs; inconclusive means weak or mixed curves; inactive means no such curve, though single readings can be large or run the other way. On the % scale 0 is the no-effect control and ±100 the full control effect; potency means the concentration at half of the fitted maximal effect; tags describe the fitted curve by direction and shape.",
  "data": [
    {"molecular_target": "Cytochrome P450 1A2 (Homo sapiens) (UniProt P05177)", "sequence (P05177 whole entry, looked up)": "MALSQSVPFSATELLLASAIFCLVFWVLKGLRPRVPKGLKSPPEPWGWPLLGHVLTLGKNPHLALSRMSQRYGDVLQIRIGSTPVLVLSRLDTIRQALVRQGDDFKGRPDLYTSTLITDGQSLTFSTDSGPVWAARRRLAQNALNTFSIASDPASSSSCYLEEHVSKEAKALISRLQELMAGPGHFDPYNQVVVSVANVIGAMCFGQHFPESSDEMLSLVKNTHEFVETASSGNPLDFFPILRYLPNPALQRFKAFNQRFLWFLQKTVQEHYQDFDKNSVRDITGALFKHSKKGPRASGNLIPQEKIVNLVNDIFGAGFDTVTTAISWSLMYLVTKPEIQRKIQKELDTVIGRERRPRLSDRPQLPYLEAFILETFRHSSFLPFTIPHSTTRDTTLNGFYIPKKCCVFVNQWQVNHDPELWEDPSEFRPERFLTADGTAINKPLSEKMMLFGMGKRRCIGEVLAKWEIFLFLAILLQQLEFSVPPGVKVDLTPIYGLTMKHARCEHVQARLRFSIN", "assay": "Cytochrome P450 Family 1 Subfamily A Member 2 (CYP1A2) small molecule antagonists: luciferase reporter qHTS assay (AID 1671199); further: nearly all actives have a fitted effect of over 50% in size", "settings": "P450-Glo CYP1A2 enzyme, luciferin luminescence, 1 h; series mostly up to 115 µM; activity change, negative = inhibition: at the top concentration", "method_in_brief": "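Luminescence readout (relative luminescence units) after luciferin detection reagent, 20 min RT. Preceded by 1 h room-temperature CYP1A2 reaction with NADPH regeneration solution following 10 min compound preincubation with enzyme and proluciferin substrate. Furafylline positive control.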", "values": [
      {"smiles": "COc1cc(C)c(Cc2cnc(N)nc2N)cc1OC", "activity change, negative = inhibition": "inactive: 10.6% [at 53 µM]"},
      {"smiles": "CCCOCCO", "Potency": "inconclusive: 32.1 µM [inhibitor, partial curve] and inactive"},
      {"smiles": "CCCC(=O)O[C@]1(C(=O)CC)CC[C@H]2[C@@H]3CCC4=CC(=O)CC[C@]4(C)[C@H]3[C@@H](O)C[C@@]21C", "activity change, negative = inhibition": "inactive: -19.4% [at 53 µM]"},
      {"smiles": "O=C(Nc1ccc(C(=O)O)c(O)c1)c1ccccc1", "activity change, negative = inhibition": "inactive: -19.2% [at 53 µM]"},
      {"smiles": "O=C(O)c1cc(C(=O)O)cc(S(=O)(=O)O)c1", "Potency": "inactive and active: 39.9 µM"},
      {"smiles": "CCCc1c(OCCCOc2ccc(OCC(=O)O)cc2)ccc(C(C)=O)c1O", "Potency": "inconclusive: 79.6 µM [inhibitor, single point]"},
      {"smiles": "Nc1ccc2c(O)cc(S(=O)(=O)O)cc2c1", "Potency": "inconclusive: 71.1 µM [inhibitor, partial curve]"},
      {"smiles": "CCCCOC(=O)c1ccccc1", "activity change, negative = inhibition": "inactive: -26.5%"},
      {"smiles": "CC(=O)OC1CCC(C(C)(C)C)CC1", "note": "(stereo not drawn)", "Potency": "inconclusive: 39.5 µM [inhibitor, partial curve]"},
      {"smiles": "CC(=O)OCCC1CCCCC1", "Potency": "inconclusive: 71 µM [inhibitor, partial curve]"},
      {"smiles": "C=COCCOCCOC=C", "Potency": "inconclusive: 71 µM [inhibitor, partial curve]"},
      {"smiles": "C/C=C/C(=O)N(CC)c1ccccc1C", "Potency": "active: 31.7 µM and inactive"},
      {"smiles": "O=C1C(O)=C(O)C(=O)C(O)=C1O", "Potency": "inconclusive: 24.5 µM [inhibitor, partial curve]"},
      {"smiles": "CC(C(=O)O)c1ccc2c(c1)[nH]c1ccc(Cl)cc12", "note": "(stereo not drawn)", "Potency": "inconclusive: 43.6 µM [inhibitor, partial curve, poor fit]"},
      {"smiles": "Fc1ccc(C(c2ccc(F)cc2)N2CCN(C/C=C/c3ccccc3)CC2)cc1", "Potency": "inconclusive: 30.9 µM [inhibitor]"},
      {"smiles": "O=Cc1cccc(Br)c1", "Potency": "active: 16.3 µM"},
      {"smiles": "CCCCCCCCCCN", "Potency": "active: 31.9 µM and active: 31.7 µM"},
      {"smiles": "NCCCN1CCN(CCCN)CC1", "Potency": "inconclusive: 31.7 µM [inhibitor, partial curve, poor fit]"},
      {"smiles": "CC(=O)OCCc1ccccc1", "activity change, negative = inhibition": "inactive: -13.8%"},
      {"smiles": "C/C=C(C)/C=C/C=C(C)C", "Potency": "inconclusive: 70.2 µM [inhibitor, partial curve] and active: 39.9 µM"},
      {"smiles": "Nc1ccc(F)cc1", "activity change, negative = inhibition": "inactive: 2.36%"},
      {"smiles": "NC(=O)Nc1ccc(Cl)c(Cl)c1", "Potency": "active: 8.91 µM"},
      {"smiles": "C1COCCO1", "Potency": "inconclusive: 64.8 µM [inhibitor, partial curve, poor fit]"},
      {"smiles": "CCC(C)COC(=O)CC(C)C", "note": "(stereo not drawn)", "Potency": "inconclusive: 39.9 µM [inhibitor, partial curve]"},
      {"smiles": "CNC(=O)C(c1ccccc1)c1ccccc1", "Potency": "inconclusive: 39.9 µM [inhibitor, partial curve]"},
      {"smiles": "OCCCCCCCl", "activity change, negative = inhibition": "inactive: -18.9%"},
      {"smiles": "CC(C)c1ccccc1O", "Potency": "inconclusive: 39.9 µM [inhibitor, partial curve]"},
      {"smiles": "C[C@H](CCC(=O)O)[C@H]1CC[C@H]2[C@@H]3[C@H](O)C[C@@H]4C[C@H](O)CC[C@]4(C)[C@H]3C[C@H](O)[C@]12C", "activity change, negative = inhibition": "inactive: -4.52% [at 53 µM]"},
      {"smiles": "CC(C)C(=O)Nc1ccc([N+](=O)[O-])c(C(F)(F)F)c1", "Potency": "active: 1.63 µM and active: 5.03 µM and active: 2.57 µM"},
      {"smiles": "O=C1CCCCC1", "Potency": "inconclusive: 66.5 µM [inhibitor, partial curve] and inactive"},
      {"smiles": "CC(=O)OCC(C)C", "activity change, negative = inhibition": "inactive: -19.4%"},
      {"smiles": "C=CCOCC(O)CCl", "note": "(stereo not drawn)", "Potency": "inconclusive: 39.9 µM [inhibitor, partial curve]"},
      {"smiles": "CC(=O)/C=C/c1ccco1", "Potency": "inconclusive: 65.7 µM [inhibitor, partial curve]"},
      {"smiles": "CCC(CC)C(C)CCOC(C)=O", "note": "(stereo not drawn)", "activity change, negative = inhibition": "inactive: -19.6%"},
      {"smiles": "Nc1ccc(C(=O)O)cc1", "Potency": "inconclusive: 63 µM [inhibitor, partial curve]"},
      {"smiles": "CCCCCC/C=C/CCCCCCCC(=O)O", "Potency": "inactive"},
      {"smiles": "CCCCCCCCCCCCSC", "Potency": "inconclusive: 35.6 µM [inhibitor, partial curve]"},
      {"smiles": "CC1=C2[C@@H]([C@H](C)CC[C@H]2/C=C(\\C)C(=O)O)[C@H](O)C1", "activity change, negative = inhibition": "inactive: 2.58%"}
    ]}
  ]
}
